Results from PubChem BioAssay AID488969 (Vanderbilt High Throughput Screening Facility, 2010).
In all, about 110,000 compounds were measured (“z-score”: median about -0.1, highest 2% from about 2 on). The list shows a part of the results. Calls of active or inactive are those of the source.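 Rule for the calls: active = z-score in the third read window above 3 or below -3; inactive = the rest.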 Residues, ends and D or L forms follow the SMILES beside them. *: point of attachment. Cbz = O=C(OCc1ccccc1)*; OtBu = CC(C)(C)O*; tBu = CC(C)(C)*

These molecules were tested against Metabotropic glutamate receptor 8 (Rattus norvegicus) (UniProt P70579) (assay: mGluR8 Gi/Go-coupled signaling modulation – cell-based, rat, thallium flux, HTS, primary screen (AID 488969)). Details: HEK293 rat mGluR8, GIRK (G protein-gated inwardly rectifying potassium channel) thallium flux, FluoZin2; at 10 µM; stronger effect = higher value; submaximal glutamate (EC20) added with thallium.
UniProt P70579, sequence (P70579 whole entry, looked up): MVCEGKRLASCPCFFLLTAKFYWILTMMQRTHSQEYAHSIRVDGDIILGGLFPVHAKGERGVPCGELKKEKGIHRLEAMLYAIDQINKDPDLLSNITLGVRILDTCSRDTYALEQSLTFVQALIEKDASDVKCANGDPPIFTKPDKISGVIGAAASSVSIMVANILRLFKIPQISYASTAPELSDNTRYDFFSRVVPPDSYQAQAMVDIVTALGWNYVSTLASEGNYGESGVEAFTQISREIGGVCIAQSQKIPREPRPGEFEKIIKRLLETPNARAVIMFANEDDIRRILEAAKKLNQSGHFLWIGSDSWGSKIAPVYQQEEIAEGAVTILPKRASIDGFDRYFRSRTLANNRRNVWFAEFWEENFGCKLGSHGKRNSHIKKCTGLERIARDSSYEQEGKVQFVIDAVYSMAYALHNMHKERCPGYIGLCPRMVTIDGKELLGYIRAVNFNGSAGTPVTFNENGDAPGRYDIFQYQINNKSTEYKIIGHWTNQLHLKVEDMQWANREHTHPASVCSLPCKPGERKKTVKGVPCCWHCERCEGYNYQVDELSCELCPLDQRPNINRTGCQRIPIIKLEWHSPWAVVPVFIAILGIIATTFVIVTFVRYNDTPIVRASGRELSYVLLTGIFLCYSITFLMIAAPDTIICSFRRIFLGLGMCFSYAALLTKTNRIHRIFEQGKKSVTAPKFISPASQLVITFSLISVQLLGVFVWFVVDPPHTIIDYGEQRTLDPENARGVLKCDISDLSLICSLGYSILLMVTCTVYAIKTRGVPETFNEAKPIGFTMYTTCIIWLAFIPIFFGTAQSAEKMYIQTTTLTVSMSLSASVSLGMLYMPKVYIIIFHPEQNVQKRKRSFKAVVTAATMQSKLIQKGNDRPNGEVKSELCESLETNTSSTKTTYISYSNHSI

O=C(NC(=S)Nc1ccc(Oc2ccc(Cl)cc2)cc1)c1ccccc1 was tested, and the z-score was active: 3.94.
With Cc1ccc(-n2[nH]c(C)c(/C=N/c3ccccn3)c2=O)cc1 the z-score was active: 6.24.

First: COc1ccc(S(=O)(=O)N2CCC(C(=O)N3CCCC3)CC2)cc1Cl
Second: COc1cccc(CNC(=O)C2CCN(S(=O)(=O)c3cccs3)CC2)c1
The z-score of the first is lower: -0.183 for the first, -0.134 for the second.

Going from Cc1cc(C(=O)COC(=O)c2ccc[nH]c2=O)c(C)n1C to COC(=O)c1ccccc1NC(=O)c1ccccc1N(C)S(C)(=O)=O, the z-score falls from -0.169 to -0.424.

Compared with O=C(Cc1sc(Nc2ccccc2)nc1-c1ccccc1)NCc1ccccc1, O=C(c1ccccc1)N(Cc1ccccc1)c1ccccn1 is higher in z-score: -0.316 for the first, -0.18 for the second.

Compared with COc1ccc(-c2cc(C(F)(F)F)nc(SCC(=O)N(C)Cc3cn(C)nc3C)n2)cc1OC, COc1ccc(C2C(C(N)=O)=C(C)Nc3nc(-c4ccccc4OC)nn32)cc1OC (configuration not stated) is higher in z-score: -0.105 for the first, 0.317 for the second.

Compared with COc1ccc(N2Cc3cccc(C(=O)O)c3C2=O)cc1, COc1ccc(/C=C/C(=O)c2c(O)ccc3c(C)cc(=O)oc23)cc1 is higher in z-score: -0.66 for the first, -0.404 for the second.

Compared with COC(=O)Oc1c(Br)c(=O)oc2ccccc12, O=C(Cc1c[nH]c2ccccc12)NCc1cccs1 is higher in z-score: -2.23 for the first, -0.252 for the second.

First: c1ccc(-c2noc(CSc3nc4ccccc4o3)n2)cc1
Second: O=P(Cc1ccncc1)(c1ccccc1)c1ccccc1
The z-score of the first is higher: 1.35 for the first, -0.282 for the second.

Compared with CCn1c(=O)n(CC)c2cc(S(=O)(=O)Nc3cc(C)cc(C)c3C#N)ccc21, COc1ccc(O)c(C(=O)c2cc(C#N)c(=O)n(CC3CCCO3)c2)c1 (configuration not stated) is lower in z-score: 0.21 for the first, -0.658 for the second.

Going from CCOC(=O)C1=C(C)NC2=C(C(=O)C(C(=O)OCC)C(c3ccc(OC)cc3)C2)C1c1ccccn1 (configuration not stated) to COC(=O)c1c(-c2ccc(C)cc2)csc1NC(=O)Cc1ccc(OC)c(OC)c1, the z-score rises from -2.09 to -0.181.

Going from CC(C)OC(=O)CSc1nnc(SCc2cccc3ccccc23)s1 to O=C(Nc1ccc2nc(SCc3ccc(Cl)cc3)sc2c1)c1ccccc1C(=O)N1CCOCC1, the z-score falls from -0.157 to -0.161.

First: CC(=O)c1ccc(NC(=O)c2ccc(S(=O)(=O)c3ccccc3)cc2)cc1
Second: COc1ccc(/C=C2/C(=O)N(c3nc4ccccc4s3)N=C2CSc2ccc(Cl)cc2)cc1
The z-score of the first is higher: -0.201 for the first, -0.344 for the second.

Compared with CCCC(=O)NC(=S)Nc1ccccc1C(=O)OC, CC(NC(=O)OCc1ccccc1)C(=O)NCC(=O)NC(Cc1ccc(OC(C)(C)C)cc1)C(=O)OC(C)(C)C (stereo not drawn) (Cbz-Ala-Gly-Tyr(tBu)-OtBu; configuration not given here) is lower in z-score: 0.0764 for the first, -0.354 for the second.

For Cc1sc2nc(CN(C(=O)NC3CCCCC3)C3CCCCC3)[nH]c(=O)c2c1C, the z-score was 0.362.
